Test results taken from the supplement of paper PMC10369915.
The other results are listed elsewhere or left out. No stated cut-off is given here; in the data, active = 3.2 or more and inactive = the rest. The signal is at background level for most entries.

Assays:
Assay in all cases: enrichment score (SH2-bound / input frequency) (ratio); bacterial display of known human phosphotyrosine sites (pTyr-Var adds point mutants) read by sequencing; higher = stronger binding; tyrosines were phosphorylated by kinases first
Details in all cases: peptide library: pTyr-Var
SHP2 C-SH2 domain E139D = target: SHP2 C-SH2 domain E139D
[1] = target: SHP2 C-SH2 domain wild-type
SHP2 N-SH2 domain L43F = target: SHP2 N-SH2 domain L43F
SHP2 N-SH2 domain T42A = target: SHP2 N-SH2 domain T42A
SHP2 N-SH2 domain T52S = target: SHP2 N-SH2 domain T52S
[2] = target: SHP2 N-SH2 domain wild-type
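Further: displayed peptides selected on beads carrying the immobilized SH2 domain, with library peptides lacking any tyrosine serving as negative controls.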

Binder	enrichment score (SHP2 C-SH2 domain E139D)	enrichment score [1]	enrichment score (SHP2 N-SH2 domain L43F)	enrichment score (SHP2 N-SH2 domain T42A)	enrichment score (SHP2 N-SH2 domain T52S)	enrichment score [2]
VATRWYPSPEL [CDKL5_Y177_R178P]	inactive: 0.945	inactive: 0.987	inactive: 0.924	inactive: 1.07	inactive: 0.831	inactive: 0.939
VATRWYRSLEL [CDKL5_Y177_P180L]	inactive: 0.611	inactive: 0.589	inactive: 0.542	inactive: 0.555	inactive: 0.567	inactive: 0.479
IGERTYGQVYK [CDK13_Y716_G714R]	inactive: 0.67	inactive: 0.6	inactive: 0.535	inactive: 0.585	inactive: 0.579	inactive: 0.606
ANFTEYVATRW [CDKL5_Y171_YF]	inactive: 0.8	inactive: 0.823	inactive: 0.881	inactive: 0.845	inactive: 0.88	inactive: 0.918
IGEGTYGVLYK [CDK2_Y15_V18L]	inactive: 0.966	inactive: 0.888	inactive: 1.04	inactive: 0.836	inactive: 0.807	inactive: 1.13
TLNVRHESVQA [CEACAM7_Y236_Y236H]	inactive: 0.693	inactive: 0.765	inactive: 0.652	inactive: 0.674	inactive: 0.726	inactive: 0.726
ANYTEYVATRW [CDKL5_Y171]	inactive: 0.921	inactive: 0.931	inactive: 0.872	inactive: 0.812	inactive: 0.803	inactive: 0.901
IEEGTYGVVYR [CDK11B_Y449]	inactive: 0.692	inactive: 0.755	inactive: 0.81	inactive: 0.557	inactive: 0.8	inactive: 0.862
DGMADCSDPSY [CDC5L_Y459_Y459C]	inactive: 0.488	inactive: 0.442	inactive: 0.406	inactive: 0.493	inactive: 0.544	inactive: 0.744
DGMADYSDPSF [CDC5L_Y459_YF]	inactive: 0.497	inactive: 0.533	inactive: 0.61	inactive: 0.461	inactive: 0.452	inactive: 0.581
PAVGIYNGNIN [CDCP1_Y707_D709G]	inactive: 0.747	inactive: 0.868	inactive: 0.654	inactive: 0.539	inactive: 1.09	inactive: 1.38
TLNVRYESVQA [CEACAM7_Y236]	inactive: 0.975	inactive: 1.06	inactive: 1.41	active: 5.53	inactive: 1.76	inactive: 1.07
KLADMYGGGED [CDH1_Y876]	inactive: 0.608	inactive: 0.507	inactive: 0.461	inactive: 0.603	inactive: 0.666	inactive: 0.488
NAPNSYGRRPI [CDKN2A_Y44]	inactive: 0.248	inactive: 0.283	inactive: 0.276	inactive: 0.216	inactive: 0.301	inactive: 0.241
TYGVLYKARNK [CDK2_Y19_V18L]	inactive: 0.355	inactive: 0.365	inactive: 0.375	inactive: 0.432	inactive: 0.408	inactive: 0.375
FGDTPYIPFRD [CDC14C_Y132]	inactive: 0.935	inactive: 0.77	inactive: 0.935	inactive: 0.786	inactive: 0.815	inactive: 0.871
SLQSEYVHFGG [CDC14A_Y591_YF]	inactive: 0.827	inactive: 0.724	inactive: 0.819	inactive: 0.573	inactive: 0.946	inactive: 0.921
NGTVSYAIVAG [CDH23_Y1672_T1671S]	active: 4.1	active: 6.24	inactive: 1.71	active: 4.96	inactive: 1.56	inactive: 0.679
THQNSYQPGRK [CEFIP_Y210]	inactive: 0.59	inactive: 0.508	inactive: 0.665	inactive: 0.47	inactive: 0.546	inactive: 0.574

Binder	enrichment score (SHP2 C-SH2 domain E139D)	enrichment score [1]	enrichment score (SHP2 N-SH2 domain L43F)	enrichment score (SHP2 N-SH2 domain T42A)	enrichment score (SHP2 N-SH2 domain T52S)	enrichment score [2]
AAYNRYDQERF [CDC73_Y293]	inactive: 0.783	inactive: 0.556	inactive: 0.773	inactive: 0.551	inactive: 0.678	inactive: 0.645
VATRWYQSPEL [CDKL5_Y177_R178Q]	inactive: 1.12	inactive: 0.667	inactive: 0.892	inactive: 0.753	inactive: 0.753	inactive: 0.936
RKNAKYLLKGE [CDH5_Y82]	inactive: 0.778	inactive: 0.388	inactive: 0.265	inactive: 0.495	inactive: 0.562	inactive: 0.156
IGEGTYGVLFK [CDK2_Y15_V18L_YF]	inactive: 1.07	inactive: 1.18	inactive: 1.05	inactive: 0.963	inactive: 0.768	inactive: 1.3
SRNKPYISWPS [CDC42BPB_Y1638]	inactive: 2.21	inactive: 1.81	inactive: 1.91	inactive: 1.69	inactive: 2.02	inactive: 1.83
TFGVAYRAKDK [CDK11B_Y453_V452A_YF]	inactive: 0.444	inactive: 0.472	inactive: 0.42	inactive: 0.425	inactive: 0.4	inactive: 0.476
TYGVVYKARNK [CDK2_Y19]	inactive: 0.311	inactive: 0.433	inactive: 0.48	inactive: 0.412	inactive: 0.65	inactive: 0.457
SSKILYHIIKG [CDH17_Y489]	inactive: 1.61	inactive: 2.47	inactive: 1.3	inactive: 1.95	inactive: 1.45	inactive: 1.59
IEEGTYGVAYR [CDK11B_Y449_V452A]	inactive: 0.67	inactive: 0.759	inactive: 0.695	inactive: 0.657	inactive: 0.638	inactive: 0.781
LLEGKYEWQEV [CDKN1B_Y74_P69L]	inactive: 1.19	inactive: 1.16	inactive: 1.6	inactive: 1.55	inactive: 1.47	inactive: 1.46
RKTAKYLLKGE [CDH5_Y82_N79T]	inactive: 0.36	inactive: 0.367	inactive: 0.567	inactive: 0.458	inactive: 0.566	inactive: 0.46
VATRWYWSPEL [CDKL5_Y177_R178W]	inactive: 1.52	inactive: 1.68	inactive: 1.59	inactive: 1.57	inactive: 1.31	inactive: 1.42
AIIGIYILRDD [CDH23_Y2949]	active: 3.39	inactive: 3.06	inactive: 2.71	inactive: 2.51	inactive: 2.43	inactive: 2.87
NGTVTYAIVAG [CDH23_Y1672]	inactive: 1.9	inactive: 3.17	inactive: 1.02	inactive: 3.14	inactive: 1.14	inactive: 0.748
TFGVVYRAKDK [CDK11B_Y453_YF]	inactive: 0.585	inactive: 0.45	inactive: 0.579	inactive: 0.469	inactive: 0.495	inactive: 0.477
TSGVVYKARNK [CDK2_Y19_Y15S]	inactive: 0.466	inactive: 0.44	inactive: 0.515	inactive: 0.565	inactive: 0.452	inactive: 0.516
ANFTEYVATSW [CDKL5_Y171_R175S_YF]	inactive: 0.938	inactive: 1.13	inactive: 1.05	inactive: 1.04	inactive: 1	inactive: 1.02
IGEGTSGVVYK [CDK2_Y15_Y15S]	inactive: 0.719	inactive: 0.801	inactive: 0.736	inactive: 0.644	inactive: 0.684	inactive: 1.11
